# Data reported in PubChem BioAssay (Tox21).
# The inconclusive results got no clear call from the source; some entries with a clear call stand among them for comparison. For some of these results: No potency is given beside an inconclusive call; the fits are too rough. More than one record can exist for a structure, and the calls need not agree. Activity calls are given as the source filed them. Unless noted, calls come from the whole dose curve; as a rule, active = well fitted curve in the direction sought with a large enough effect in the repeat runs; inconclusive = weak or mixed curves; inactive = no such curve, though single readings can be large; an effect the other way counts as inactive or inconclusive.
# Experiments:
# [1] = molecular target: Androgen receptor (Homo sapiens) (UniProt P10275); assay: qHTS assay to identify small molecule agonists of the androgen receptor (AR) signaling pathway (AID 743036; active = well fitted activation curve with a large enough effect in the signal ratio in the repeat runs, with a control signal flat, not every such curve was filed as active; inconclusive = weak or mixed curves, or effect the other way; inactive = no such curve, though single readings can be large or run the other way; the % refers to the signal ratio; note: potency is the fitted concentration of half-maximal effect; for activation: % is set by controls: 0 for no effect and ±100 for the full control effect); conditions: HEK293 AR-UAS-bla GripTite, beta-lactamase FRET ratio, 16 h; activation: at 62.4 µM (top of the series) unless noted
# Method in brief: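 Quantitative HTS of the Tox21 10K library in HEK293 cells bearing a stably integrated UAS-controlled beta-lactamase reporter. Compound exposure lasted 16 h at 37C. Reporter activity was detected by FRET substrate fluorescence after 2 h at room temperature.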
# [2] = qHTS assay to identify small molecule antagonists of the androgen receptor (AR) signaling pathway using the MDA cell line - cell viability counter screen (AID 743041; note: nearly all actives have a fitted effect of over 45% in size; note: potency is the fitted concentration of half-maximal effect); conditions: MDA-kb2 viability, CellTiter-Fluor, 16 h, cells co-treated with R1881 androgen agonist; viability change, negative = cytotoxic: at 70.3 µM (top of the series) unless noted
# Method in brief: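 MDA-kb2 AR-luc human breast carcinoma cells (MMTV-luciferase, AR/GR responsive) were treated with compounds plus R1881 agonist for 16 h at 37 °C. Viability was read as CellTiter-Fluor fluorescence in the same wells as the reporter assay.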
# [3] = molecular target: Androgen receptor (Homo sapiens) (UniProt P10275); assay: qHTS assay to identify small molecule antagonists of the androgen receptor (AR) signaling pathway using the MDA cell line (AID 743042; note: nearly all actives have a fitted effect of over 55% in size; note: potency is the fitted concentration of half-maximal effect; for activity change, negative = inhibition: % is set by controls: 0 for no effect and ±100 for the full control effect); conditions: MDA-kb2 AR-luc, MMTV luciferase, R1881 antagonist, 16 h; activity change, negative = inhibition: at 70.3 µM (top of the series)
# Method in brief: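 MDA-kb2 cells (human breast carcinoma, stably carrying an MMTV-luciferase reporter responsive to AR and GR) were plated at 3,000 cells/well and preincubated 5 hr at 37C, then given compound plus R1881 agonist for 16 h. ONE-Glo luminescence was read.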
# [4] = qHTS assay to identify small molecule antagonists of the thyroid receptor (TR) signaling pathway (AID 743065); conditions: GH3.TRE-Luc, T3-stimulated luciferase inhibition, 23.5 h; series mostly up to 70.3 µM; note: potency is the fitted concentration of half-maximal effect; nearly all actives have a fitted effect of over 55% in size
# Method in brief: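 GH3.TRE-Luc rat pituitary cells carrying two TR response elements driving luciferase were plated for 4 h, given compound plus 1 nM T3 (final), and incubated 23.5 h at 37 C. ONE-Glo luminescence measured reporter inhibition; CellTiter-Fluor fluorescence tracked cytotoxicity.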
# [5] = system: thyroid hormone receptor (rat, GH3 cells); assay: qHTS assay to identify small molecule agonists of the thyroid receptor (TR) signaling pathway (AID 743066; calls by dose curve; note: % is set by controls: 0 for no effect and ±100 for the full control effect); conditions: GH3.TRE-Luc cells, TR agonist luciferase, 24 h; activation: at 83.9 µM (top of the series) unless noted
# [6] = molecular target: Estrogen receptor (Homo sapiens) (UniProt P03372); assay: qHTS assay to identify small molecule agonists of the estrogen receptor alpha (ER-alpha) signaling pathway (AID 743075; calls by dose curve; note: potency is the fitted concentration of half-maximal effect); conditions: HEK293 ER-alpha-UAS-bla, beta-lactamase FRET ratio, 18 h; series mostly up to 70.1 µM
# [7] = molecular target: Androgen receptor (Homo sapiens) (UniProt P10275); assay: qHTS assay to identify small molecule agonists of the androgen receptor (AR) signaling pathway using the MDA cell line (AID 743040; note: nearly all actives have a fitted effect of over 20% in size; note: potency is the fitted concentration of half-maximal effect; for activity change: % is set by controls: 0 for no effect and ±100 for the full control effect); conditions: MDA-kb2 AR-luc cells, MMTV luciferase, 16 h; activity change: at 70.3 µM (top of the series), active compounds read high unless noted
# Method in brief: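 MDA-kb2 breast carcinoma cells stably carrying an MMTV-driven luciferase reporter (AR- and GR-responsive) were seeded and held 5 h at 37C, 0% CO2, then exposed to compounds in DMSO for 16 h. Luminescence was read 30 min after ONE-Glo addition.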
# [8] = qHTS assay to identify small molecule antagonists of the thyroid receptor (TR) signaling pathway - cell viability counter screen (AID 743064); conditions: GH3.TRE-Luc viability, CellTiter-Fluor, 24 h; activity change, negative = cytotoxic: at 70.3 µM (top of the series) unless noted; note: nearly all actives have a fitted effect of over 50% in size; note: potency is the fitted concentration of half-maximal effect
# Method in brief: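 Rat GH3 pituitary tumor cells stably expressing two TR response elements driving luciferase were plated, rested 4 h, then dosed with library compounds and T3 (1 nM final). After 23.5 h at 37 °C, CellTiter-Fluor was added for 30 min and fluorescence recorded.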
# [9] = molecular target: Estrogen receptor (Homo sapiens) (UniProt P03372); assay: qHTS assay to identify small molecule antagonists of the estrogen receptor alpha (ER-alpha) signaling pathway (AID 743069; active = well fitted curve in the direction sought with a large enough effect in the signal ratio in the repeat runs, not every such curve was filed as active; inconclusive = weak or mixed curves, or effect the other way; inactive = no such curve, though single readings can be large or run the other way; the % refers to the signal ratio; note: potency is the fitted concentration of half-maximal effect); conditions: HEK293 ER-alpha-UAS-bla, beta-lactamase ratio, antagonist mode; activity, negative = inhibition: at 69.4 µM (top of the series) unless noted
# Method in brief: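 HEK293 cells stably carrying an ER-alpha-UAS-bla beta-lactamase reporter were pre-cultured overnight in 2% charcoal-stripped FBS medium. Test compounds in DMSO were added together with 17beta-estradiol for 18 hr at 37C. Read-out was fluorescence after 2 hr with LiveBLAzer B/G FRET substrate at room temperature.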
# [10] = qHTS assay to identify small molecule antagonists of the estrogen receptor alpha (ER-alpha) signaling pathway - cell viability counter screen (AID 743074; calls by dose curve; note: nearly all actives have a fitted effect of over 45% in size; note: potency is the fitted concentration of half-maximal effect); conditions: ERalpha-bla HEK293 viability, CellTiter-Glo luminescence, 18 h; series mostly up to 69.4 µM
# Tags give direction and shape of the fitted curve or compound fluorescence and quenching.
# UniProt P03372, sequence (P03372 whole entry, looked up): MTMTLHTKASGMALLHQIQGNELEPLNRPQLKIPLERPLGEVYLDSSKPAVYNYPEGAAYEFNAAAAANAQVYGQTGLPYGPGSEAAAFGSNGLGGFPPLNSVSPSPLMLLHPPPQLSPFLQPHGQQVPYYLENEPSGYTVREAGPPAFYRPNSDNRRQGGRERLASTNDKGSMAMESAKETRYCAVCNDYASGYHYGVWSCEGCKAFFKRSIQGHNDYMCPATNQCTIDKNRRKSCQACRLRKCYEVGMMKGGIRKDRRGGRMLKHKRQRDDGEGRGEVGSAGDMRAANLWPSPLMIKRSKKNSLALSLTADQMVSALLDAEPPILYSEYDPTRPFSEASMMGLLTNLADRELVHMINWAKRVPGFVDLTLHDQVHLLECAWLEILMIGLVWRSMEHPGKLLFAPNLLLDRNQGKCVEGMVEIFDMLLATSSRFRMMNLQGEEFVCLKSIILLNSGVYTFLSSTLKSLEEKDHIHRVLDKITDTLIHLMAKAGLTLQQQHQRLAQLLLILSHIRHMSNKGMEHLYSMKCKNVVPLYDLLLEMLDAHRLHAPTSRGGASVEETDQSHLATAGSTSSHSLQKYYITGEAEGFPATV
# UniProt P10275, sequence (P10275 whole entry, looked up): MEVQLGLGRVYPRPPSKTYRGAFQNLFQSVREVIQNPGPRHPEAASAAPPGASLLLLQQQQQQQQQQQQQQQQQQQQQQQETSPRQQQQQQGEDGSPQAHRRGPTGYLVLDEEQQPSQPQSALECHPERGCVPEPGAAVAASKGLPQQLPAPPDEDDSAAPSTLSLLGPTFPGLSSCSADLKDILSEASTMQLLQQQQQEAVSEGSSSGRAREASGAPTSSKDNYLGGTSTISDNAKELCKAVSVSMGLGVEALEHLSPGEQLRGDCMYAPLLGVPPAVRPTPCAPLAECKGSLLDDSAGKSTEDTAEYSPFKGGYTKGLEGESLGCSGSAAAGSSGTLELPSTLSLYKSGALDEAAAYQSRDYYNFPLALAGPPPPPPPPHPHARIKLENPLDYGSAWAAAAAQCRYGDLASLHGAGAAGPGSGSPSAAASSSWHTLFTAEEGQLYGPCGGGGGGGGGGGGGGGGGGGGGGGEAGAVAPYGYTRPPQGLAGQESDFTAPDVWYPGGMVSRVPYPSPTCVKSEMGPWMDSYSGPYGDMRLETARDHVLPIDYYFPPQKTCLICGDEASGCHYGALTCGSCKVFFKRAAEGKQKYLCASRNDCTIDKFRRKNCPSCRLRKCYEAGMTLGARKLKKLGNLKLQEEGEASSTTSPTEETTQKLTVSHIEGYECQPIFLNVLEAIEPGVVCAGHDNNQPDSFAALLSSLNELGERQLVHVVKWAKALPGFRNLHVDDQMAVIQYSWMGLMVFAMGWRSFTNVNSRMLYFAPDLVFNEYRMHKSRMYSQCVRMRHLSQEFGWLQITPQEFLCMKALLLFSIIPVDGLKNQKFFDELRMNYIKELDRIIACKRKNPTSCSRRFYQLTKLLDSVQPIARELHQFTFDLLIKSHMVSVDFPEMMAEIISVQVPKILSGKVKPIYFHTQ
structure (smiles),measurement,setting,value
CNC(=S)NC,Potency,[1],"inconclusive [falling, partial curve, poor fit]"
same,Potency,[2],"inconclusive [cytotoxic, partial curve, poor fit]"
same,Potency,[3],"inconclusive [inhibitor, partial curve, poor fit]"
same,Potency,[4],"inconclusive [inhibitor, single point]"
COc1ccc(C(=O)c2cccc(O)c2)c(OC)c1,Potency,[1],"inconclusive [rising, full curve, poor fit]"
same,Potency,[2],"inconclusive [rising, full curve, poor fit]"
same,Potency,[4],"inconclusive [inhibitor, single point]"
same,Potency,[5],inactive
same,Potency,[6],active: 24.5 µM [activator]
C=C(C)CS(=O)(=O)O,Potency,[1],"inconclusive [activator, single point]"
Cc1cc2nc(N)sc2cc1C,Potency,[1],inconclusive
CC(=O)[C@H]1CC[C@H]2[C@@H]3C[C@H](C)C4=CC(=O)CC[C@]4(C)[C@H]3[C@@H](O)C[C@]12C,Potency,[1],active: 0.0129 µM
same,Potency,[7],active: 0.0285 µM
CC[C@H](NC(C)C)[C@H](O)c1ccc(O)c2[nH]c(=O)ccc12,Potency,[1],inactive
CCC(=O)O[C@]1(C(=O)CCl)[C@@H](C)C[C@H]2[C@@H]3CCC4=CC(=O)C=C[C@]4(C)[C@@]3(F)[C@@H](O)C[C@@]21C,Potency,[1],"inconclusive [activator, partial curve]"
same,Potency,[7],active: 0.0019 µM
same,Potency,[3],inactive
C=CCOC(=O)CCCCCC,Potency,[1],"inconclusive [activator, single point]"
CCCOCC(C)O (stereo unspecified),Potency,[1],inactive
same,activity change,[7],active: -0.141%
Nc1ccc(N)c2c1C(=O)c1ccccc1C2=O,Potency,[1],inactive
same,Potency,[2],"inconclusive [cytotoxic, partial curve]"
same,Potency,[8],"inconclusive [cytotoxic, partial curve, poor fit]"
O=Cc1ccc(Cl)cc1,Potency,[1],active: 19.4 µM
same,Potency,[7],"inconclusive [activator, full curve]"
C/C(=C(\CCOP(=O)(O)O)SC(=O)c1ccccc1)N(C=O)Cc1cnc(C)nc1N,Potency,[1],"inconclusive [activator, partial curve, poor fit]"
same,Potency,[7],active: 12.7 µM
same,Potency,[8],inactive
same,Potency,[5],inactive
same,Potency,[6],inactive
CCOC(=O)COC(=O)c1cc(Oc2ccc(C(F)(F)F)cc2Cl)ccc1[N+](=O)[O-],Potency,[1],inactive
Nc1cccc([N+](=O)[O-])c1,Potency,[1],inactive
NC(N)=N/N=C/c1c(Cl)cccc1Cl,Potency,[1],"inconclusive [rising, partial curve, poor fit]"
same,Potency,[2],"inconclusive [cytotoxic, single point]"
same,Potency,[3],"inconclusive [inhibitor, single point]"
same,Potency,[9],inconclusive [activator]
CC1(C)C(O)C(C)(C)C1O (stereo unspecified),activation,[1],inconclusive: -10.2%
COc1cccc2sc(N)nc12,Potency,[1],"inconclusive [rising, partial curve, poor fit]"
same,Potency,[7],"inconclusive [activator, partial curve]"
same,Potency,[9],inactive
Cc1c(C(=O)NCCO)[n+](=O)c2ccccc2n1[O-],Potency,[1],inactive
OC(CCCN1CCCCC1)(c1ccccc1)c1ccccc1,Potency,[1],inactive
same,Potency,[2],inactive
same,Potency,[8],"inconclusive [cytotoxic, partial curve]"
same,Potency,[4],"inconclusive [inhibitor, partial curve]"
same,Potency,[10],"inconclusive [cytotoxic, single point]"
Cc1ccc(-c2ncc(Cl)cc2-c2ccc(S(C)(=O)=O)cc2)cn1,Potency,[1],inactive
Cc1ccc(Nc2nccc(N(C)c3ccc4c(C)n(C)nc4c3)n2)cc1S(N)(=O)=O,Potency,[1],"inconclusive [activator, single point]"
same,Potency,[2],inconclusive [cytotoxic]
same,Potency,[10],"inconclusive [rising, single point]"
same,Potency,[6],inactive
COc1ccc2c(c1)c1c3n2CCN(C)C3=NCC1,Potency,[1],"inconclusive [activator, partial curve]"
same,Potency,[7],inactive
same,Potency,[3],inconclusive [inhibitor]
same,Potency,[10],inactive
CCOC(=O)[C@@H](C)Oc1ccc(Oc2nc3ccc(Cl)cc3o2)cc1,Potency,[1],"inconclusive [rising, partial curve, poor fit]"
CCc1cccc(N(C)C(N)=Nc2cccc3ccccc23)c1,Potency,[1],"inconclusive [activator, single point]"
same,Potency,[2],"inconclusive [cytotoxic, partial curve, poor fit]"
same,Potency,[3],inconclusive [inhibitor]
same,Potency,[8],active: 18.8 µM
same,Potency,[10],"inconclusive [cytotoxic, full curve]"
